SMILES strings stand for the structures. The campaign covered roughly 110,000 compounds. About 230 (0.21%) showed an effect of 50% or more. The list shows a part of the results.
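Also: 30 min substrate incubation versus DMSO and 10 µM JCP410 controls.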

Sequence of DPAP1 (Q8IIJ9 whole entry, looked up): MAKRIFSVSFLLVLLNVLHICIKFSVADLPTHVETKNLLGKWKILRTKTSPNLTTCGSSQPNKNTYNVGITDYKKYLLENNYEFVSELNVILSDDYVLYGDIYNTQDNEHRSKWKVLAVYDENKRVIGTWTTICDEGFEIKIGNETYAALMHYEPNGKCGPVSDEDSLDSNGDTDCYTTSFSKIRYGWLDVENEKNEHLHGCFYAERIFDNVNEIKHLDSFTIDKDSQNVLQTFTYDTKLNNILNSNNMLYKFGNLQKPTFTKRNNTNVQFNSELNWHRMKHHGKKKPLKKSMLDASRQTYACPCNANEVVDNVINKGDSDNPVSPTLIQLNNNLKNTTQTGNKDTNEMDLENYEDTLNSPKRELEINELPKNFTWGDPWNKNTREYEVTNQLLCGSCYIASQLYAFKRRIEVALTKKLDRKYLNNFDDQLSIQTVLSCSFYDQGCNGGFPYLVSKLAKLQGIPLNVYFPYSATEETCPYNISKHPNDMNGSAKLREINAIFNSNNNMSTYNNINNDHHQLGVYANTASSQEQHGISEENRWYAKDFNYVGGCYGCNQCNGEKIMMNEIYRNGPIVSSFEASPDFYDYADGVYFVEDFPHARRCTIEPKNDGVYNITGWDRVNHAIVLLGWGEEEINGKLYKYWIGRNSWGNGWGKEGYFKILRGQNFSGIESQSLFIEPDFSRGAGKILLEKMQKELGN

The assay addresses DPAP1 (Plasmodium falciparum, UniProt Q8IIJ9). The assay is described as follows: primary screen, percent inhibition; read by cleavage of a fluorogenic dipeptide substrate; higher = more effect of the substance. Set-up: species or system P. falciparum D10 trophozoite lysates; single well.
As for `C#CCOc1ccc(/C=C2/C(=O)N(c3nc(C)c(C(=O)OCC)s3)N=C2C)cc1Cl`, the “% Inhibition @ 10 uM” value was 2.56%.

For the molecule `COc1ccccc1CNC(=O)C(NS(=O)(=O)c1ccc2nc(C)sc2c1)C(C)C` (stereo not drawn), the “% Inhibition @ 10 uM” value is listed as 1.62%.

Consider `COc1ccc(CCN2CC34C=CC(O3)C(C(=O)NCc3ccc(C)cc3)C4C2=O)cc1OC` (stereo not drawn), for which the “% Inhibition @ 10 uM” value turned out to be 2.59%.

`Cc1cc(OCC(=O)Nc2ccccn2)cc(C)c1Cl`: the “% Inhibition @ 10 uM” value is given as -7.93%.

Regarding `COc1ccc(NC(=O)CN(c2ccccc2C)S(=O)(=O)c2ccc(C)cc2)cc1OC`, the “% Inhibition @ 10 uM” value amounted to 4.67%.

`Cc1nc2nc(CNC(=O)OC(C)(C)C)nn2c(C)c1CCC(=O)NCCc1ccc(Cl)cc1`: the “% Inhibition @ 10 uM” value was determined as 4.4%.

With `CCOC(=O)c1c(-c2ccccc2)oc2cc(Br)c(OS(C)(=O)=O)cc12`, the “% Inhibition @ 10 uM” value is recorded as 2.85%.

For the molecule `COc1ccc(C(=O)Nc2sc3c(c2C(N)=O)CCC3)c(OC)c1`, the “% Inhibition @ 10 uM” value came out at 2.54%.

For `CC1CCC(NC(=O)CC/N=c2/c(N3CCCC3)c(O)c2=O)CC1` (stereo not drawn), the “% Inhibition @ 10 uM” value was 1.68%.

Turning to `CCOc1ccc(C(=O)NCCC(C)C)cc1`, the “% Inhibition @ 10 uM” value is -3.01%.

On to `O=C1NC(=O)/C(=C\c2ccc(-c3ccccc3)o2)N1`, for which the “% Inhibition @ 10 uM” value came out at 0.145%.

As to `O=C(Cn1ncc2ccccc21)NC1CCCc2ccccc21` (stereo not drawn), the “% Inhibition @ 10 uM” value turned out to be 1.68%.

Take `COc1ccc(C2CC(=O)NC3=C2C(=O)CC(c2ccccc2Cl)C3)cc1` (stereo not drawn): the “% Inhibition @ 10 uM” value is listed as -1%.

`CC(Cc1ccc(F)cc1)N1CCC(C(N)=O)CC1` (stereo not drawn): the “% Inhibition @ 10 uM” value is recorded as -7.18%.

On to `COc1ccc(C(=O)NCc2ccccn2)cc1`, for which the “% Inhibition @ 10 uM” value worked out at 3.53%.

As for `CC(C)N(Cc1ccccc1)c1c(-c2ccccc2)c(=O)c1=O`, the “% Inhibition @ 10 uM” value is -3.47%.

Regarding `Cc1ccc(CNC(=O)c2ccc(Cn3c(SCc4ccccc4)nc4cccnc43)cc2)o1`, the “% Inhibition @ 10 uM” value is listed as 4.79%.

With `O=C(COc1ccccc1Cl)Nc1ccc(F)c(Cl)c1`, the “% Inhibition @ 10 uM” value was 4.12%.

In the case of `CCc1nn(C(C)C(=O)NC(C)c2ccc3c(c2)OCCO3)c(=O)c2cc3occc3n12` (stereo not drawn), the “% Inhibition @ 10 uM” value is recorded as -5.63%.

As to `O=C(NCc1ccccc1Cl)C1CCN(S(=O)(=O)c2cccs2)CC1`, the “% Inhibition @ 10 uM” value is -4.79%.

Take `Fc1cc2nc(S)n(Cc3ccccc3)c2cc1F`: the “% Inhibition @ 10 uM” value stood at 12.2%.

Regarding `O=C1S/C(=C\c2c(NCC3CCCO3)nc3ccccn3c2=O)C(=O)N1Cc1ccccc1` (stereo not drawn), the “% Inhibition @ 10 uM” value was 2.25%.

Take `CC(=O)NCCc1nc2ccccc2n1Cc1cccc(Cl)c1`: the “% Inhibition @ 10 uM” value was -0.551%.

Take `O=C(Nc1nccs1)C1CCC(CNc2c(N3CCOCC3)c(=O)c2=O)CC1` (stereo not drawn): the “% Inhibition @ 10 uM” value is given as -0.447%.

As to `COc1ccc(OCc2nc3ccccc3[nH]2)cc1`, the “% Inhibition @ 10 uM” value was -2.66%.

With `O=S(=O)(Nc1ccccn1)c1ccc(-n2cccn2)cc1`, the “% Inhibition @ 10 uM” value is -1.26%.

As for `CCc1[nH]nc2c1C(c1cccc(OC)c1OC)C(C#N)=C(N)O2` (stereo not drawn), the “% Inhibition @ 10 uM” value is listed as -7.3%.

As to `NC(=O)/C(=C\c1ccc2c(c1)OCO2)NC(=O)c1ccc(Br)o1`, the “% Inhibition @ 10 uM” value is reported as -2.58%.

For `COc1ccccc1-c1nc(N)nc(N)n1`, the “% Inhibition @ 10 uM” value is 3.42%.

For `CC(C)C[C@H](NC(=O)c1cc(-c2ccc(Cl)cc2)cs1)C(=O)NCC#N`, the “% Inhibition @ 10 uM” value is recorded as -1.82%.

Regarding `Cn1nc(-c2ccc(C(=O)NCc3cccnc3)cc2)c2ccccc2c1=O`, the “% Inhibition @ 10 uM” value is -1.43%.

`CCOc1ccc(C(=O)Nc2sc(C)c(C)c2C#N)cc1`: the “% Inhibition @ 10 uM” value was determined as 15.2%.

On to `Cc1nnc(Nc2cc(Br)cc(Br)c2O)s1`, for which the “% Inhibition @ 10 uM” value is listed as -2.12%.

Turning to `Cc1ccc2onc(CC(=O)Nc3nc(C)cs3)c2c1`, the “% Inhibition @ 10 uM” value was -3.49%.

For `COc1ccc(C)cc1N(CC(=O)NCc1ccccn1)S(=O)(=O)c1ccccc1`, the “% Inhibition @ 10 uM” value came out at 1.52%.

For the molecule `CC1CC(C)CN(CCCNC(=O)Cn2ncc3c4ccccc4n(Cc4ccccc4)c3c2=O)C1` (stereo not drawn), the “% Inhibition @ 10 uM” value was determined as 0.137%.

Consider `Cc1ccc(N2C(=O)C3C4C=CC(C4)C3(C)C2=O)cc1Cl` (stereo not drawn), for which the “% Inhibition @ 10 uM” value is given as 4.08%.

In the case of `O=C(c1sc(N2CCOCC2)nc1-c1ccccc1)c1c[nH]c2ccccc12`, the “% Inhibition @ 10 uM” value was 72.2%.

On to `C/C(=C\c1ccccc1)CN1CCCN(C)CC1`, for which the “% Inhibition @ 10 uM” value was -2%.

For the molecule `COc1ccc(CC(=O)Nc2nnc(C(C)(C)C)s2)cc1`, the “% Inhibition @ 10 uM” value was 1.58%.

Take `O=c1c2c(-c3ccccc3)csc2nc2c3ccccc3c(N3CCOCC3)nn12`: the “% Inhibition @ 10 uM” value was -3.71%.

For `Nc1c(C(=O)NCCc2c[nH]c3ccccc23)sc2nc(-c3cccnc3)ccc12`, the “% Inhibition @ 10 uM” value amounted to 4.33%.

Consider `N#Cc1ccc(/C=C2/NC(=O)N(Cc3ccccc3F)C2=O)cc1`, for which the “% Inhibition @ 10 uM” value is given as -3.63%.

As to `CC(=O)Nc1ccccc1/C=C/c1ccc2c(C)cc(C)c(O)c2n1`, the “% Inhibition @ 10 uM” value amounted to 4.28%.

In the case of `COc1cccc(CNC(=O)Cn2sc3ccccc3c2=O)c1`, the “% Inhibition @ 10 uM” value is on record as -5.95%.

In the case of `O=c1oc2ccccc2n1Cc1ccc(Cl)cc1Cl`, the “% Inhibition @ 10 uM” value came to 1.4%.

As to `CCCN1C(=O)/C(=C\c2ccncc2)S/C1=N/c1ccccc1`, the “% Inhibition @ 10 uM” value was 0.389%.

Consider `CN(CCc1ccccn1)Cc1cccc(F)c1`, for which the “% Inhibition @ 10 uM” value was found to be 4.55%.

Regarding `COc1ccc(C(=O)Nc2ccc(N3CCN(C(=O)c4ccco4)CC3)cc2)cc1`, the “% Inhibition @ 10 uM” value was -5.32%.

In the case of `Cc1nc2c(C(=O)NCCc3ccccc3)cnn2c(O)c1Cc1cccc(Cl)c1`, the “% Inhibition @ 10 uM” value was 0.723%.

`Cc1ccc(C(=O)N2CCCC(C)C2)cc1[N+](=O)[O-]` (stereo not drawn): the “% Inhibition @ 10 uM” value was -1.48%.

For the origin of these results see paper PMC6919601, “Identification of Plasmodium dipeptidyl aminopeptidase allosteric inhibitors by high throughput screening” (PLoS ONE, 2019).
